Counter-ions that a name gives are not always drawn. ± gives the standard deviation of the averaged measurements. Over roughly 2,000 compounds, “relative cell viability vs DMSO, compound alone” has its median near 1.1; the lowest 2% begin near 0.29. This is one part of the list.
The compounds below were run on TE10 (assay: relative cell viability vs DMSO, compound alone (fraction); TE10 is an esophageal squamous carcinoma line; higher = less cytotoxic). Details: 2 µM; 48 h.
Procedure: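 TE10 ESCC cells (1,000/well, 384-well plates) were treated with Selleck bioactive library compounds at 2 uM alone for 48 h. Viability was read by CellTiter-Glo and expressed relative to DMSO wells. Two technical replicates (A, B).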
For `CCC1(c2ccccc2)C(=O)NCNC1=O` [Primidone], the relative cell viability was 0.901 ± 0.089. For `CCCCc1oc2ccc(NS(C)(=O)=O)cc2c1C(=O)c1ccc(OCCCN(CCCC)CCCC)cc1` [Dronedarone HCl], the relative cell viability was 0.848 ± 0.04. With `Nc1ncnc2c1ncn2[C@@H]1O[C@H](CO)[C@@H](O)[C@@H]1O` [Vidarabine] the relative cell viability was 1.08 ± 0.033. In the case of `CC1CCN(CC[C@H]2CCCN2S(=O)(=O)c2cccc(O)c2)CC1`, the relative cell viability is reported as 1.06 ± 0.021. Compound `C=CC(=O)Nc1cccc(Oc2nc(Nc3ccc(N4CCN(C)CC4)cc3)ncc2Cl)c1` has a relative cell viability of 0.758 ± 0.011. With `C[C@@](Cc1ccc(O)c(O)c1)(NN)C(=O)O` [Carbidopa] the relative cell viability was 1.06 ± 0.081. For `CCOc1nc2cccc(C(=O)O)c2n1Cc1ccc(-c2ccccc2-c2nnn[nH]2)cc1` [Candesartan], the relative cell viability was 1.11 ± 0.018. `CC(C)Oc1ccc2c(=O)c(-c3ccccc3)coc2c1` [Ipriflavone (Osteofix)] was tested, and the relative cell viability was 0.823 ± 0.12. Compound `CCCCOc1ccc(C(=O)Nc2ccc(F)cc2F)cc1` has a relative cell viability of 1.08 ± 0.038. In the case of `Nc1nc(OCc2cc(Br)cs2)c2[nH]cnc2n1` [Lomeguatrib], the relative cell viability is reported as 1.12 ± 0.035. Compound `Clc1ccc2nsnc2c1NC1=NCCN1` [Tizanidine HCl] has a relative cell viability of 1.18 ± 0.021. For `Cc1cc(Nc2cc(N3CCN(C)CC3)nc(Sc3ccc(NC(=O)C4CC4)cc3)n2)n[nH]1` [VX-680 (Tozasertib, MK-0457)], the relative cell viability was 1.03 ± 0.014. For `Cc1cc(C(C)Nc2ccccc2)c2nc(N3CCOCC3)cc(=O)n2c1` (stereo not drawn), the relative cell viability was 1.13 ± 0.1. `NC1(Cc2ccc(Cl)cc2)CCN(c2ncnc3[nH]ccc23)CC1` gave a relative cell viability of 0.818 ± 0.13. In the case of `CCOC(=O)C1=C(N)Oc2ccc(Br)cc2C1C(C#N)C(=O)OCC` (stereo not drawn), the relative cell viability is reported as 1.12 ± 0.11. `O=[N+]([O-])c1ccc(Nc2nc(N3CCOCC3)nc(N3CCOCC3)n2)cc1` showed a relative cell viability of 1.12 ± 0.012. `CCCCOc1cc(C(=O)OCCN(CC)CC)ccc1N` [Oxybuprocaine HCl] gave a relative cell viability of 1.13 ± 0.049. Work on `O=C1O[C@H]([C@@H](O)CO)C([O-])=C1O.[Na+]` [Sodium ascorbate] yielded a relative cell viability of 1.12 ± 0.076. Compound `N#C/C(=C1/SC[C@@H](c2ccc(Cl)cc2Cl)S1)n1ccnc1` [Luliconazole] has a relative cell viability of 1.1796 ± 0.00042. `NC(=O)C1CCCc2c1[nH]c1ccc(Cl)cc21` (stereo not drawn) [EX 527 (Selisistat)] was tested, and the relative cell viability was 0.983 ± 0.2. For `COC(=O)[C@H](Cc1ccccc1)NC(=O)[C@@H](N)CC(=O)O` [Aspartame], the relative cell viability was 1.06 ± 0.036. `CCS(=O)(=O)c1cccc(-c2cc(C(=O)NC3CCN(C)CC3)c(C)c3[nH]c4ncc(C)cc4c23)c1` showed a relative cell viability of 0.719 ± 0.011. Work on `Clc1ccc(C2(c3ccc(-c4cn[nH]c4)cc3)CCNCC2)cc1` yielded a relative cell viability of 0.907 ± 0.011. `CNC(=O)[C@@H](NC(=O)[C@H](CC(C)C)[C@H](O)C(=O)NO)C(C)(C)C` [Marimastat(BB-2516)] gave a relative cell viability of 1.05 ± 0.073. Work on `C[C@]12CC[C@@H]3c4ccc(O)cc4C[C@@H](CCCCCCCCC[S+]([O-])CCCC(F)(F)C(F)(F)F)[C@H]3[C@@H]1CC[C@@H]2O` (stereo partly drawn) [Fulvestrant] yielded a relative cell viability of 1.21 ± 0.051. Work on `C=C[C@](C)(O)CC[C@@H]1[C@@]2(C)CCCC(C)(C)[C@@H]2CC[C@@]1(C)O` [Sclareol] yielded a relative cell viability of 1.17 ± 0.031. In the case of `O=C(O)c1cccc(-c2noc(-c3ccccc3F)n2)c1` [Ataluren (PTC124)], the relative cell viability is reported as 0.55 ± 0.02. For `Nc1ccc(S(=O)(=O)Nc2nccs2)cc1` [Sulfathiazole], the relative cell viability was 1.15 ± 0.033. `Cc1ccc(-c2cc(C(F)(F)F)nn2-c2ccc(S(N)(=O)=O)cc2)cc1` [Celecoxib] gave a relative cell viability of 1.17 ± 0.14. `CC(C)[N+]1(C)[C@@H]2CC[C@H]1C[C@@H](OC(=O)C(CO)c1ccccc1)C2` (stereo partly drawn) [Ipratropium Bromide] was tested, and the relative cell viability was 1.05 ± 0.11. `O=C1C(Cl)=C(N2CCOCC2)C(=O)N1c1ccc(Cl)c(Cl)c1` was tested, and the relative cell viability was 1.13 ± 0.034. Work on `OCCn1cc(-c2ccc3c(c2)CC/C3=N\O)c(-c2ccncc2)n1` yielded a relative cell viability of 1.156 ± 0.01. In the case of `CN1CCc2nc(C(=O)N[C@@H]3C[C@@H](C(=O)N(C)C)CC[C@@H]3NC(=O)C(=O)Nc3ccc(Cl)cn3)sc2C1` [Edoxaban], the relative cell viability is reported as 1.09 ± 0.014. In the case of `CCn1c(N)c(C(=O)NC)c(=O)c2ccc(C#CC(C)(O)COC)nc21` (stereo not drawn), the relative cell viability is reported as 0.979 ± 0.17. `CC[C@H]1OC(=O)[C@H](C)[C@@H](O[C@H]2C[C@@](C)(OC)[C@@H](O)[C@H](C)O2)[C@H](C)[C@@H](O[C@@H]2O[C@H](C)C[C@H](N(C)C)[C@H]2O)[C@](C)(O)C[C@@H](C)CN(C)[C@H](C)[C@@H](O)[C@]1(C)O` [Azithromycin] was tested, and the relative cell viability was 0.888 ± 0.054. `CC[C@H]1OC(=O)[C@H](C)[C@@H](O[C@H]2C[C@@](C)(OC)[C@@H](O)[C@H](C)O2)[C@H](C)[C@@H](O[C@@H]2O[C@H](C)C[C@H](N(C)C)[C@H]2O)[C@](C)(O)C[C@@H](C)CN(C)[C@H](C)[C@@H](O)[C@]1(C)O` [Azithromycin Dihydrate] gave a relative cell viability of 1.09 ± 0.049. Work on `CN[C@H]1CC[C@@H](c2ccc(Cl)c(Cl)c2)c2ccccc21` [Sertraline HCl] yielded a relative cell viability of 0.99 ± 0.021. In the case of `NC[C@H](O)c1ccc(O)c(O)c1` [Noradrenaline bitartrate monohydrate], the relative cell viability is reported as 1.06 ± 0.025. In the case of `CCN(CC)CCNC(=O)c1ccc(N)cc1` [Procainamide HCl], the relative cell viability is reported as 1.06 ± 0.059. Compound `CC(C=CC1(O)C(C)=CC(=O)CC1(C)C)=CC(=O)O` (stereo not drawn) [Abscisic Acid (Dormin)] has a relative cell viability of 1.153 ± 0.0068. `C=C[C@]1(C)C[C@@H](OC(=O)CSC(C)(C)CNC(=O)[C@H](N)C(C)C)[C@]2(C)[C@H](C)CC[C@]3(CCC(=O)[C@H]32)[C@@H](C)[C@@H]1O` [Valnemulin HCl] was tested, and the relative cell viability was 1.17 ± 0.072. With `Cc1c(-c2ccc(O)cc2)n(Cc2ccc(OCCN3CCCCCC3)cc2)c2ccc(O)cc12` [Bazedoxifene HCl] the relative cell viability was 0.935 ± 0.041. For `CCc1cc2c(cc1CC)CC(NC[C@H](O)c1ccc(O)c3[nH]c(=O)ccc13)C2` [Indacaterol Maleate], the relative cell viability was 1.15 ± 0.066. With `CNC(=O)c1ccc(N2C(=S)N(c3ccc(C#N)c(C(F)(F)F)c3)C(=O)C2(C)C)cc1F` [Enzalutamide (MDV3100)] the relative cell viability was 0.897 ± 0.093. `CCCc1ccc(OCC(=O)N(Cc2nc(-c3cccnc3)no2)C(C)C)cc1` showed a relative cell viability of 1.13 ± 0.076. `COc1cc(OC)c(NC(=O)Nc2cc(C)on2)cc1Cl` showed a relative cell viability of 1.13 ± 0.043. For `COc1cc2nc(N3CCN(C(=O)C4COc5ccccc5O4)CC3)nc(N)c2cc1OC` (stereo not drawn) [Doxazosin Mesylate], the relative cell viability was 1.3 ± 0.035. Compound `N#C/C(=C(/N)Sc1ccc(N)cc1)c1ccccc1C(F)(F)F` has a relative cell viability of 1.13 ± 0.051.

Source: the supplement of paper PMC10670038
